# Data reported in publication PMC4336329 (PLoS ONE, 2015).
# Hit rate of the full screen: of about 310,000 compounds, about 14,000 (4.5%) showed an effect of 50% or more. The effect is printed as a negative number. The list shows a part of the results.
# Target: human ether-à-go-go-related gene (hERG) potassium channel (human, UniProt Q12809)
# Test: primary screen, population patch clamp on CHO cells stably expressing hERG
# 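Also: peak tail current of the secondary pulse compared with the same well before compound.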
# human ether-à-go-go-related gene (hERG) potassium channel, sequence (Q12809 whole entry, looked up): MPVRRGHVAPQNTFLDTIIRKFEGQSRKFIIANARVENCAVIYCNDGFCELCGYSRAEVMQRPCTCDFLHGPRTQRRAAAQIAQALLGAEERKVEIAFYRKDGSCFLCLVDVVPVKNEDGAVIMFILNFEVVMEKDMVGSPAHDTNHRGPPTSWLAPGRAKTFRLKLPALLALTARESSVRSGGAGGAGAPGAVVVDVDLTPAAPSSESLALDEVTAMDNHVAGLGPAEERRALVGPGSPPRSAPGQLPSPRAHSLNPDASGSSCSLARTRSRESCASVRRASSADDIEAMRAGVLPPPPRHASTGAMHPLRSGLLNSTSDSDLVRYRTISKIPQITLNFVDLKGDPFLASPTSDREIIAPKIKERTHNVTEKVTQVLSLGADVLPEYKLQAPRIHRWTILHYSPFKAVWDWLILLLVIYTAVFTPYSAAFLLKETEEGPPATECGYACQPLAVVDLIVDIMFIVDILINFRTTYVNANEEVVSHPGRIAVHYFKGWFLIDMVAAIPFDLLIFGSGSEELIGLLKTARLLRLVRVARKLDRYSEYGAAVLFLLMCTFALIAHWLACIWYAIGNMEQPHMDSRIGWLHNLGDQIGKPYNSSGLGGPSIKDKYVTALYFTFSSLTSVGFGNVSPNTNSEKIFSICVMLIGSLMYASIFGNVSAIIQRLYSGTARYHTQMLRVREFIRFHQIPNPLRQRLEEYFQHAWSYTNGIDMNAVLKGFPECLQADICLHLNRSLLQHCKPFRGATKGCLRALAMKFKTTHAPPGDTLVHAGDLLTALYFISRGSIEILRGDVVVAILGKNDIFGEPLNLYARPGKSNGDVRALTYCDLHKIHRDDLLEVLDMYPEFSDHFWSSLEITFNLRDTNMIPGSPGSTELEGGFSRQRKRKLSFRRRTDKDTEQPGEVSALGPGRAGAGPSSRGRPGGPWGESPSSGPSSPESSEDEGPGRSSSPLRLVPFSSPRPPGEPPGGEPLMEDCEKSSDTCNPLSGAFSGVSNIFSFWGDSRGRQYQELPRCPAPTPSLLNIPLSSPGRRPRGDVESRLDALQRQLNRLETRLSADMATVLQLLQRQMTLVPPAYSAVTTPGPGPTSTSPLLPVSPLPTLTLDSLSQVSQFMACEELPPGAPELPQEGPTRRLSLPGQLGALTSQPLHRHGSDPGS
row,Structure (SMILES),"hERG current change (%, negative = inhibition) at 10uM"
1,CCCC(C)C1(CC)C(=O)NC(=Nc2ccc(F)cc2)NC1=O (stereo not shown),17.5%
2,CCc1ccccc1N1CN(Cc2ccco2)CNC1=S,12.6%
3,O=c1cc(C(Cl)(Cl)Cl)oc2c1ccc1ccccc12,10.6%
4,CN(C)CCCN(C(=O)c1sc2ccccc2c1Cl)c1nc2ccc(F)cc2s1.Cl,-19.7%
5,CSc1nsc(/C=C/Nc2ccc(O)cc2C)c1C#N,-13.5%
6,COc1ccc2nc(Nc3nc(CSc4nnnn4-c4ccccc4)cc(=O)[nH]3)nc(C)c2c1,-42.1%
7,CC(=O)OC1CC2(C)C(=O)CCC2C2CCc3cc(O)ccc3C12 (stereo not shown),1.59%
8,Cc1ccc(O)c(C(=O)c2cnc3c(c2)c(-c2ccc(F)cc2)c(C#N)c(=O)n3C)c1,-5.53%
9,Cc1ccc(S(=O)(=O)Nc2nc3ccccc3nc2N2CCc3ccccc3C2)cc1,3.37%
10,O=C(/C=C/c1cccc(Cl)c1)NNC(=O)c1ccncc1,-6.64%
11,COc1ccc(-c2nn(-c3ccccc3)cc2C(=O)N2CCOCC2)cc1,-2.01%
12,CCOC(=O)C1(CC/C(C)=N\NC(N)=O)CC(C)OC1=O (stereo not shown),2.82%
13,O=C(CS(=O)c1cccc(Cl)c1)Nc1ccccc1Cl (stereo not shown),-11.4%
14,O=C(C1CCN(Cc2ccc(Cl)cc2)CC1)N1CCN(Cc2ccc3c(c2)OCO3)CC1,-66.6%
15,Cc1cccc(C)c1NC(=O)C(NC=O)c1ccc(Cl)cc1 (stereo not shown),0.758%
16,COc1ccccc1N(CC(=O)Nc1cccc(C(F)(F)F)c1)S(C)(=O)=O,-2.18%
17,COC(=O)c1ccccc1NC(=O)Nc1ccc(Cl)cn1,-3.82%
18,Cc1ccc(NCN2C(=O)C(=O)c3ccccc32)nc1,-2.15%
19,O=C(CSC1=NCCS1)Nc1ccc(F)cc1,15.1%
20,O=C(c1ccc2c(c1)OCCO2)N1CCN(c2ccccn2)CC1,15.8%
21,O=C(COC(=O)CCc1ccccc1)Nc1cc(S(=O)(=O)N2CCOCC2)ccc1N1CCCC1,-20.1%
22,O=c1nc(N(c2ccccc2)c2ccccc2)[nH]c(=O)[nH]1,-8.04%

row,Structure (SMILES),"hERG current change (%, negative = inhibition) at 10uM"
1,COc1ccc2cc(C(=O)C3CCCN(Cc4ccccn4)C3)ccc2c1 (stereo not shown),-66.2%
2,O=C(Nc1cnccn1)c1ccc(F)cc1Cl,-10.4%
3,CCc1ccccc1NS(=O)(=O)Cc1ccccc1,-1.1%
4,CC(C)N1CC(C(=O)Nc2ccc(S(=O)(=O)N3CCCCC3)cc2)CC1=O (stereo not shown),15.9%
5,CN(CC(=O)NC1CC1)S(=O)(=O)c1cc(Cl)ccc1Cl,6.21%
6,COc1ccc(CN2CCN(C(=O)c3cccnc3)CC2)cc1Br.O=C(O)C(=O)O,-9.65%
7,Nc1ccccc1-c1nnc(-c2ccc(-c3ccccc3)cc2)o1,10.1%
8,O=C(CN1C(=O)c2cccc3cccc1c23)NC1CCCC1,15.1%
9,COc1ccc(/C=N/NC(=O)CN2CCCC2)cc1,-14.8%
10,COc1ccc(C(=O)Nc2cccc(/C(C)=N/NC(=O)c3ccc([N+](=O)[O-])cc3)c2)cc1OC,-3.06%
11,Cc1cc(/C=N/NC(N)=S)c(C)n1-c1ccc(Cl)cc1,-6.66%
12,O=c1[nH]c(=O)n(Cc2ccccc2)c2c1C(C(F)(F)F)(C(F)(F)F)N=C(c1ccco1)N2,-6.01%
13,O=C(Nc1ccc(Br)cc1)c1ccc(Br)c(S(=O)(=O)Nc2cccnc2)c1,-3.28%
14,Cc1ccc(N2C(=O)c3ccccc3C2C(=O)c2cc(C)ccc2O)cc1 (stereo not shown),5.38%
15,C#CCSc1nnc(CNS(=O)(=O)c2ccc(Br)cc2)n1C,-3.68%
16,Cc1noc(C)c1S(=O)(=O)N1CCN(Cc2ccc3c(c2)OCO3)CC1,-24.5%
17,Cc1cc(Cl)ccc1OCC(=O)NNC(=O)c1cnccn1,11.6%
18,COc1ccc(NC(=O)CCC(=O)N2CCN(S(=O)(=O)c3ccc(C)cc3)CC2)c(OC)c1,-28%
19,CCOc1ccc(N(C)S(=O)(=O)c2ccc(C)c(C(=O)OCC(=O)c3c[nH]c4ccccc34)c2)cc1,6.3%
20,CCOc1ccc(-n2c(=O)c3c4c(sc3n(CC(=O)NCC3CCCO3)c2=O)CCCC4)cc1 (stereo not shown),0.791%
21,CC(C)(C)C(=O)NNC(=O)c1ccc(Oc2cc(Cl)cc(Cl)c2)o1,-4.84%
